# Assay results as given in the supplement of paper PMC8728848.
# The other results are listed elsewhere or left out.
# Columns and labels:
# Assay in all cases: glycan array binding signal (z-score within array); higher = stronger binding
# Conditions in all cases: glycan notation: IUPAC condensed, linker removed
# [1] = target: Fuc(a1-2)[GalNAc(b1-3)]Gal
# Outline: (§1)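 Glycan array data came from 3228 arrays in the Consortium for Functional Glycomics database, and only arrays with an available protein sequence were kept. Glycan names were put into IUPAC-condensed notation, and columns mapping to the same glycan were averaged. The binding signal is a within-array Z-score, averaged across arrays of one protein sequence run at different concentrations or buffers and across linkers. A negative Z-score can be read as non-binding.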
# Fuc(a1-3)GlcNAc = target: Fuc(a1-3)GlcNAc
# Outline: as §1
# [2] = target: Fuc(a1-3)[Gal(b1-4)]Glc6S
# Outline: as §1
# [3] = target: Fuc(a1-3)[Gal(b1-4)]GlcNAc
# Outline: as §1
# [4] = target: Fuc(a1-3)[Gal(b1-4)]GlcNAc(b1-2)Man
# Outline: as §1
# [5] = target: Fuc(a1-3)[Gal(b1-4)]GlcNAc(b1-2)Man(a1-3)[Fuc(a1-3)[Gal(b1-4)]GlcNAc(b1-2)Man(a1-6)]Man(b1-4)GlcNAc(b1-4)GlcNAc
# Outline: as §1
# [6] = target: Fuc(a1-3)[Gal(b1-4)]GlcNAc(b1-2)Man(a1-3)[Fuc(a1-3)[Gal(b1-4)]GlcNAc(b1-2)Man(a1-6)]Man(b1-4)GlcNAc(b1-4)[Fuc(a1-6)]GlcNAc
# Outline: as §1
# [7] = target: Fuc(a1-3)[Gal(b1-4)]GlcNAc(b1-3)Gal(b1-3)[Fuc(a1-4)]GlcNAc
# Outline: as §1
# [8] = target: Fuc(a1-3)[Gal(b1-4)]GlcNAc(b1-3)Gal(b1-4)[Fuc(a1-3)]GlcNAc
# Outline: as §1
# [9] = target: Fuc(a1-3)[Gal(b1-4)]GlcNAc(b1-3)Gal(b1-4)[Fuc(a1-3)]GlcNAc(b1-3)Gal(b1-4)[Fuc(a1-3)]GlcNAc
# Outline: as §1
# [10] = target: Fuc(a1-3)[Gal(b1-4)]GlcNAc(b1-3)GalNAc
# Outline: as §1
# [11] = target: Fuc(a1-3)[Gal(b1-4)]GlcNAc(b1-6)GalNAc
# Outline: as §1
# [12] = target: Fuc(a1-3)[Gal(b1-4)]GlcNAc(b1-6)[Gal(b1-3)GlcNAc(b1-3)]Gal(b1-4)Glc
# Outline: as §1
# [13] = target: Fuc(a1-3)[Gal(b1-4)]GlcNAc6S
# Outline: as §1
# [14] = target: Fuc(a1-3)[Gal3S(b1-4)]Glc
# Outline: as §1
# [15] = target: Fuc(a1-3)[Gal3S(b1-4)]GlcNAc
# Outline: as §1
# [16] = target: Fuc(a1-3)[Gal3S(b1-4)]GlcNAc6S
# Outline: as §1
# [17] = target: Fuc(a1-3)[GalNAc(b1-4)]GlcNAc
# Outline: as §1
# [18] = target: Fuc(a1-3)[GalNAc(b1-4)]GlcNAc6S
# Outline: as §1
# Fuc(a1-4)GlcNAc = target: Fuc(a1-4)GlcNAc
# Outline: as §1
# Fuc(b1-3)GlcNAc = target: Fuc(b1-3)GlcNAc
# Outline: as §1
# Gal(a1-2)Gal = target: Gal(a1-2)Gal
# Outline: as §1
# Gal(a1-3)Gal = target: Gal(a1-3)Gal
# Outline: as §1
# Gal(a1-3)Gal(b1-3)GlcNAc = target: Gal(a1-3)Gal(b1-3)GlcNAc
# Outline: as §1
# [19] = target: Gal(a1-3)Gal(b1-3)GlcNAc(b1-2)Man
# Outline: as §1
# [20] = target: Gal(a1-3)Gal(b1-3)GlcNAc(b1-2)Man(a1-3)[Gal(a1-3)Gal(b1-3)GlcNAc(b1-2)Man(a1-6)]Man(b1-4)GlcNAc(b1-4)GlcNAc
# Outline: as §1
# [21] = target: Gal(a1-3)Gal(b1-3)GlcNAc(b1-3)GalNAc
# Outline: as §1
# [22] = target: Gal(a1-3)Gal(b1-3)GlcNAc(b1-6)GalNAc
# Outline: as §1
# [23] = target: Gal(a1-3)Gal(b1-3)[Fuc(a1-4)]GlcNAc(b1-2)Man(a1-3)[Gal(a1-3)Gal(b1-3)[Fuc(a1-4)]GlcNAc(b1-2)Man(a1-6)]Man(b1-4)GlcNAc(b1-4)GlcNAc
# Outline: as §1
# Gal(a1-3)Gal(b1-4)Glc = target: Gal(a1-3)Gal(b1-4)Glc
# Outline: as §1
# Gal(a1-3)Gal(b1-4)GlcNAc = target: Gal(a1-3)Gal(b1-4)GlcNAc
# Outline: as §1
# [24] = target: Gal(a1-3)Gal(b1-4)GlcNAc(b1-2)Man
# Outline: as §1
# [25] = target: Gal(a1-3)Gal(b1-4)GlcNAc(b1-2)Man(a1-3)[Gal(a1-3)Gal(b1-4)GlcNAc(b1-2)Man(a1-6)]Man(b1-4)GlcNAc(b1-4)GlcNAc
# Outline: as §1
# [26] = target: Gal(a1-3)Gal(b1-4)GlcNAc(b1-3)GalNAc
# Outline: as §1
# [27] = target: Gal(a1-3)Gal(b1-4)GlcNAc(b1-6)GalNAc
# Outline: as §1
# [28] = target: Gal(a1-3)Gal(b1-4)[Fuc(a1-3)]GlcNAc
# Outline: as §1
# [29] = target: Gal(a1-3)Gal(b1-4)[Fuc(a1-3)]GlcNAc(b1-2)Man(a1-3)[Gal(a1-3)Gal(b1-4)[Fuc(a1-3)]GlcNAc(b1-2)Man(a1-6)]Man(b1-4)GlcNAc(b1-4)GlcNAc
# Outline: as §1
# Gal(a1-3)GalNAc = target: Gal(a1-3)GalNAc
# Outline: as §1
# [30] = target: Gal(a1-3)[Gal(a1-4)]Gal(b1-4)GlcNAc
# Outline: as §1
# [31] = target: Gal(a1-4)Gal(b1-3)GlcNAc(b1-2)Man(a1-3)[Gal(a1-4)Gal(b1-3)GlcNAc(b1-2)Man(a1-6)]Man(b1-4)GlcNAc(b1-4)GlcNAc
# Outline: as §1
# Gal(a1-4)Gal(b1-4)Glc = target: Gal(a1-4)Gal(b1-4)Glc
# Outline: as §1
# Gal(a1-4)Gal(b1-4)GlcNAc = target: Gal(a1-4)Gal(b1-4)GlcNAc
# Outline: as §1
# [32] = target: Gal(a1-4)Gal(b1-4)GlcNAc(b1-2)Man(a1-3)[Gal(a1-4)Gal(b1-4)GlcNAc(b1-2)Man(a1-6)]Man(b1-4)GlcNAc(b1-4)GlcNAc
# Outline: as §1
# [33] = target: Gal(a1-4)Gal(b1-4)GlcNAc(b1-3)Gal(b1-4)Glc
# Outline: as §1
# Gal(a1-4)GlcNAc = target: Gal(a1-4)GlcNAc
# Outline: as §1
binder,measurement,setting,value
PX9961A-pdi-456-24-456 (Parabacteroides distasonis) (protein) KTSSTQLPTIDAISSVADLTNAVNGVYEQQATEVGSYGAEFTLLADLRSGDFQSISTVNHAGPMYRYQTGKNDEMVYSFYKLFYNSLARLNNVLAAAENLEGADVDILKGELYAMRALYHFDLARVFAKLPSTTDMNDLGIVLSTEVYPTDYIGTRATLQQTYDQILKDIETALPLLSKDKQTGHINYWGALAIRARAYLYLEKNKEALADCKEIIASSPYKLYTRDEYIGAWDKEGTNEAIFEILVTPNYNAQRNSIGYFTHASGYGECAATESFLEELAKHPGDIRTELFAKETDNGYDGTYPQKYKGRDGQIYVNNPKVVRLSEVYLIAAEAALKAGDTSAAAGYMNTLRKNRIENYTDVASITLDDILLERRLELFTEGHTAWDAWRNGKSVNNKFVGEVKPGDYRTIMAIPIGEITVSRGQLIQNPGY,glycan array binding signal (z-score),[1],-0.12
same,glycan array binding signal (z-score),Fuc(a1-3)GlcNAc,-0.424
same,glycan array binding signal (z-score),[2],0.11
same,glycan array binding signal (z-score),[3],-0.238
same,glycan array binding signal (z-score),[4],-0.45
same,glycan array binding signal (z-score),[5],-0.323
same,glycan array binding signal (z-score),[6],0.26
same,glycan array binding signal (z-score),[7],-0.331
same,glycan array binding signal (z-score),[8],0.307
same,glycan array binding signal (z-score),[9],-0.015
same,glycan array binding signal (z-score),[10],-0.161
same,glycan array binding signal (z-score),[11],-0.18
same,glycan array binding signal (z-score),[12],-0.42
same,glycan array binding signal (z-score),[13],-0.406
same,glycan array binding signal (z-score),[14],0.02
same,glycan array binding signal (z-score),[15],0.282
same,glycan array binding signal (z-score),[16],-0.41
same,glycan array binding signal (z-score),[17],0.918
same,glycan array binding signal (z-score),[18],-0.23
same,glycan array binding signal (z-score),Fuc(a1-4)GlcNAc,7.24
same,glycan array binding signal (z-score),Fuc(b1-3)GlcNAc,-0.388
same,glycan array binding signal (z-score),Gal(a1-2)Gal,-0.234
same,glycan array binding signal (z-score),Gal(a1-3)Gal,-0.037
same,glycan array binding signal (z-score),Gal(a1-3)Gal(b1-3)GlcNAc,-0.523
same,glycan array binding signal (z-score),[19],-0.316
same,glycan array binding signal (z-score),[20],0.289
same,glycan array binding signal (z-score),[21],-0.446
same,glycan array binding signal (z-score),[22],-0.286
same,glycan array binding signal (z-score),[23],-0.006
same,glycan array binding signal (z-score),Gal(a1-3)Gal(b1-4)Glc,-0.148
same,glycan array binding signal (z-score),Gal(a1-3)Gal(b1-4)GlcNAc,0.08
same,glycan array binding signal (z-score),[24],-0.561
same,glycan array binding signal (z-score),[25],0.21
same,glycan array binding signal (z-score),[26],-0.276
same,glycan array binding signal (z-score),[27],-0.576
same,glycan array binding signal (z-score),[28],-0.421
same,glycan array binding signal (z-score),[29],0.63
same,glycan array binding signal (z-score),Gal(a1-3)GalNAc,-0.152
same,glycan array binding signal (z-score),[30],0.431
same,glycan array binding signal (z-score),[31],-0.338
same,glycan array binding signal (z-score),Gal(a1-4)Gal(b1-4)Glc,0.665
same,glycan array binding signal (z-score),Gal(a1-4)Gal(b1-4)GlcNAc,0.305
same,glycan array binding signal (z-score),[32],0.514
same,glycan array binding signal (z-score),[33],0.043
same,glycan array binding signal (z-score),Gal(a1-4)GlcNAc,-0.171
